From the supplement of paper PMC11417369
This is one part of the list.

tested on: PfSIP2 AP2 domain 1 (GST-tagged); assay: gcPBM binding intensity (ln(normalized median fluorescence intensity)); higher = stronger DNA binding
In short: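 Binding intensity values are the highest Masliner-normalised natural-log median intensity among replicate spots of either probe orientation. The binding step lasted 1 h in 1× PBS with 1% milk, 0.2 mg/ml BSA, 0.5% salmon testes DNA and 0.03% Triton X-100, using GST-tagged P. falciparum DNA-binding domains expressed in E. coli on an Agilent 4 × 180k array of primer-extended double-stranded 36-bp intergenic genomic probes plus negative controls. Alexa488 anti-GST antibody and a 488 nm scan detected bound protein.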

Sequence | gcPBM binding intensity (ln)
ATATAAGAAATAAAGAAAAATGTGTTTTTTTTTTTT [XGTACX_negctrl_site396] | 6.6
AGAGCTGTTTTTTATGCATGTAGTTTAGAAAATACA [TGCATGCA_site257] | 6.79
TTTATCTTATTTTTATGTACTTATTTTATAAAAAAA [XGTACX_site7730] | 7.67
TTTTTCCTAACATATTATATACTTGAATATTTATTA [CACACA_negctrl_site156] | 6.85
AAACAAATATTTATCACAATGTCATTTTGTTAACAT [GTGCAC_negctrl_site171] | 6.92
CTTTGTAGTATATTAACACACAACTGTTTATAATAT [CACACA_site6038] | 7.05
TTCTTTAAAAAATTCGATAAAAAAAAAAAAAGAAAA [CACACA_negctrl_site242] | 6.8
TATATACTCATGCGCACACACAAGTGGGAAATTTGG [CACACA_site5056] | 7.42
ATATACATATATATTGCATGCAGAGAGTATTTATAA [TGCATGCA_site646] | 6.94
ATATATATATATATTGTGCACAAAAAAAAATAAGCA | 9.29
ATATATTATAGGTACACACACATATAAGGGATTATA [CACACA_site6154] | 7.22
GGAAAGACAGTTCACAGTACCCAGGAAATCTACGGA [XGTACX_site1996] | 6.88
TTATTAAATATGTACACACGTACATTTTATAAATGA [CACACA_site2387] | 7.3
TATATATATATTTAGTGTACTTAAAAAAAATAATAA [XGTACX_site5454] | 8.47
ATAATAATAAAATATATATACAAAGGTGAAATTATA [TGCATGCA_negctrl_site197] | 7.17
TATTTTTTTTTCCATTGTACATTTTTGATATTTTTC [XGTACX_site744] | 6.79
TTTTATTATAATAATTGTACAAAAATTATTTAATAT [XGTACX_site6054] | 6.9
TTAATTTATTATCTTTGTACACAATTAAAAAAAAAA [XGTACX_site3469] | 6.78
ATAAATATACATTATACCGACCATGTGGATATTATA [XGTACX_negctrl_site241] | 6.93
AAAAAAAAAAAAAAAAGTACAAGCATTGCGTTTTAA [XGTACX_site6075] | 7.5
AGAAAAAAAAAAAAAAAAATATATATATATATATAT [TGCATGCA_negctrl_site411] | 8.98
AAAAAAAAAAAAAAAACACACATACACGCACGCACA [CACACA_site7569] | 7.94

Sequence | gcPBM binding intensity (ln)
GTATATATATACCATTGTACTTTCGTAAAAATATTT [XGTACX_site4846] | 7.12
TTTTGGTTTTGTTCTACACACATAAAAAAAAAAAAG [CACACA_site2276] | 7.18
ATATATCAATATGGAATATATATATATATATATATA [TGCATGCA_negctrl_site502] | 9.68
TTTCTATTTATTAATACATGCAAAATAAAGTAAAGT [TGCATGCA_site209] | 7.44
ATATATATAAATAAATGTACATAAATAATATATTAT [XGTACX_site5419] | 7.52
TATATATATATATATATATTTATGTATTTATTTAAT [TGCATGCA_negctrl_site179] | 9.49
TTATTTTTATATTTTAATTTTAAAAAAATTTTAATT [CACACA_negctrl_site777] | 6.74
ATTATACATATTATATGTACATATATAAATAAATAA [XGTACX_site7076] | 7.18
ATTTTTTATGTTAATGCATGCTCATGTGTATTTCAT [TGCATGCA_site751] | 7.05
AAATATAACATCATCACACACATATACTTTATATGC [CACACA_site1126] | 7.01
AGCTTCATATTATGGAGTACTATTAAAAATAAATAA [XGTACX_site2649] | 6.98
TAATTAGATTATTTTTGTACATATTATTATAGGTTA [XGTACX_site2077] | 6.93
AGATATTATAAAATATGTACATATATATATATATAT [XGTACX_site2088] | 9.12
AAAGTAATAATGATTTGTACATATATATATATATAT [XGTACX_site8821] | 9.09
TTATCTTTTTTCGTTTGTACGTAACCATATTACTAT [XGTACX_site8853] | 7.11
ATGCAAATGTGCATCACACACACTAATGGGTATGTA [CACACA_site2893] | 7.47
GGAATATATATACATACACACATATATATATATATA [CACACA_site1666] | 9.52
AAAAATAATTATTCGTGTACAAAAAAAAAAATATAA [XGTACX_site439] | 7.09
TATAAAATAAATTGTGCACACATATTTATAAATATG [CACACA_site2330] | 9.39
TATATGGAAAATTAAAGTACTAAAGAATAAATAGAA [XGTACX_site8796] | 7.2
TATAGATACATATACACACACACACCGACATATATA [CACACA_site9138] | 7.11
AATAATAGAAGCACCCACCCACCACCACCCACACAT [CACACA_negctrl_site1033] | 8.5

Sequence | gcPBM binding intensity (ln)
GAGAAACTTGTTTAAACATGCACAAAAAAAAAAAAA [TGCATGCA_site340] | 7.12
ACGATGAATATGTAAAGTACGCAAATGTAACAATAT [XGTACX_site728] | 7.19
GTAGTTACATATAGGGTGCTCCAATAGTTGACCTCG | 8.76
AAATAAAAAAAGGGAACATGCAATATGTACAAATAT [TGCATGCA_site869] | 7.01
TCATAGGTTCAAAAGGGTACATTAATACATACATAT [XGTACX_site2236] | 6.95
AGCATTTTTCATTTTGCACACATGTTTTATGGGTAT [CACACA_site5839] | 7.48
CATATATATTGATATGCACACCTATGTATTGATGTA [CACACA_site8269] | 8.47
TCTTTTTTCTTTTTTTCACACATTATTTTTTAAATA [CACACA_site5197] | 7.22
AGCTGAAAAAAAAGCTTGCACACGTATTTGCTTTAT [CACACA_site1512] | 6.87
CATATTATATTCTGCTTACACACATATATATATATA [CACACA_site3059] | 9.09
TTTTTTTGTTATATCCTGCACTTCTTAACTATATTA [GTGCAC_site9807] | 8.45
AATAATAAGAATAACGCATGCACATATAATATAGAA [TGCATGCA_site3] | 7.37
AATATGTAGTAATCAAGTACTAATGTCTTAATTCGG [XGTACX_site308] | 6.83
GTTTTTTATATAAGGTGGTCAACATTGTAATGTTAA [XGTACX_site3204] | 7.37
AAATTACACATCCATACACACATATTTTTTTTAATT [CACACA_site5242] | 7.02
ATATAAATTGGCAATAGTACATAAAGGCATAGAAAG [XGTACX_site2674] | 7.31
GTATATATGTATATGTGTACACATATTCTTAACTCA [XGTACX_site309] | 7.11
TTAACAAATAAACACACACACACACCCAAAAAAAAA [CACACA_site8068] | 7.11
ATAAAAAAAAAAACAGTAAAATTATAATTATAATTA [TGCATGCA_negctrl_site356] | 6.95
TAATGATAAATACATACACACAAAAAATGATATATA [CACACA_site7258] | 6.86
TATATCCCTTAGAATACACACCCATATGAGTGTGAA [CACACA_site8965] | 6.7
AATGTAAAATCTTCATATACATTTAAGTCTGTATTT [TGCATGCA_negctrl_site183] | 6.74

Sequence | gcPBM binding intensity (ln)
ACAAAAATTAAATAAAGTACATTTTTAAAATACGTA [XGTACX_site3880] | 6.8
AAAAGCACAAAAAATACACACACAAAAAATAAAAAA [CACACA_site8545] | 6.95
TAAGACAATAAATGCTGTACAATTGAATATCTTGGA [XGTACX_site636] | 6.65
TTATAAAAATTTAGTTGTACATGTCAAATTATCAAT [XGTACX_site7229] | 6.92
TATTTTATTATTATTATTTCTTTATAGTGTATTCTA [CACACA_negctrl_site517] | 6.67
TTTTCGTAACTGATTCAACACACAAAAGGGGGAAAA [CACACA_site8517] | 8.07
AATATATAGCTAAAAACACACAAATATATACACATA [CACACA_site9203] | 6.99
TATTTTATTATTATTATTAGTATGATTTCTTTATAG [CACACA_negctrl_site550] | 6.64
GGATAGGCATAACATAGTACGTACAAATATATATAT [XGTACX_site454] | 8.38
TTTTTTGTACCAAAAAAAAAAAAAAGAAAAAAAAAC [CACACA_negctrl_site1416] | 7.13
AATGTGTTTTTTTTTTTTTTTTTTTTCAATCTCTAT [CACACA_negctrl_site794] | 6.68
GAAAAAAGAAAAAAAAGTACACACATGTATATTAAT [XGTACX_site5265] | 7.03
AATGTACACCCACCCACACACAAACAAATATATATA [CACACA_site5521] | 7.62
TTTTTGTTTGAACACTGTACGTATAAATATAAAAGT [XGTACX_site6476] | 7.89
TTATATTATGTTCAATCAAAAATTATTTTTAAAAAA [XGTACX_negctrl_site595] | 6.97
TATATATAAAAACACACACACACACCCTATAATTAT [CACACA_site4063] | 7.08
TTTCAAATTTAATACACACACAAGTATATATTTATC [CACACA_site3947] | 6.94
TTGTGTTATCACACGAAGGGGATAAGACATAAATGT [TGCATGCA_negctrl_site368] | 6.92
TATTTATTGTGACACTTATATTATTTTATGATTAAA [CACACA_negctrl_site525] | 6.94
AATAATACATCCTTAGTGCAGAAATAAAAATTAAGC [GTGCAC_site9955] | 8
TTTTCATTTGTGACAGTGCAAAATGTTATATTAAAA [GTGCAC_site9647] | 8.57
